{
  "source": "PubChem BioAssay AID686971",
  "about": "(National Center for Advancing Translational Sciences (NCATS), 2013)",
  "note": "Among all 360,000 compounds or so, about 7,500 (2.1%) were called active. The inconclusive results got no clear call from the source; some entries with a clear call stand among them for comparison. The call rests on the fitted dose curve; in most records, active means well fitted cell-killing curve with a large enough effect; inconclusive means small, poorly fitted or top-dose-only effect, or effect the other way, or another doubt; inactive means no such curve, though single readings can be large or run the other way. No potency is given beside an inconclusive call; the fits are too rough. Potency means the concentration at half of the fitted maximal effect; tags describe the fitted curve by direction and shape.",
  "data": [
    {"assay": "qHTS for induction of synthetic lethality in tumor cells producing 2HG: qHTS for the HT-1080-IDH1KD cell line;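 on activity, negative = toxicity: 0% = DMSO wells and -100% = cell-free medium wells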", "conditions": "HT-1080 IDH1 knockdown viability, ATP luminescence, 48 h; activity, negative = toxicity: at 46.1 µM (top of the series) unless noted", "procedure,_shortened": "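Using the IDH1-knockdown HT-1080 line run in the same batch and compound series as the NT line, viability after 48 h at 37 °C was determined by CellTiter-Glo luminescence and expressed as % activity.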", "values": [
      {"compound": "CC(=O)N1Cc2cc(N)ccc2Oc2ccccc21", "activity, negative = toxicity": "inactive: 4.15%"},
      {"compound": "OCCNc1c2ccccc2nc2c(F)c(F)c(F)c(F)c12", "Potency": "active: 4.61 µM"},
      {"compound": "CC(=O)c1ccc(Oc2cc(-c3ccccc3)nc(-c3ccccc3)n2)cc1", "Potency": "inconclusive [rising, partial curve, poor fit]"},
      {"compound": "O=C(/C=C/c1ccc([N+](=O)[O-])cc1)NCCN1C(=O)S/C(=C\\c2ccc(F)cc2)C1=O", "activity, negative = toxicity": "inactive: 15.6%"},
      {"compound": "CN(CC(=O)Nc1cccc(F)c1)C(=O)c1ccc2c(c1)CC(c1ccccc1)OC2=O", "note": "(stereo not given)", "Potency": "active: 16.4 µM"},
      {"compound": "COc1ccc(C2=NS(=O)(=O)N(C)C(C(=O)Nc3ccc4c(c3)OCO4)=C2)cc1", "activity, negative = toxicity": "inactive: -11.6%"},
      {"compound": "CC(C)C[C@H](NC(=O)c1nc[nH]c1C(=O)NC1CCN(C(=O)OC(C)(C)C)CC1)C(=O)OC(C)(C)C", "Potency": "inconclusive [cytotoxic, single point]"},
      {"compound": "CC1(C)CC(=O)C=C(c2ccc(-c3cnn(Cc4ccccc4)c3)cc2)C1=O", "activity, negative = toxicity": "inconclusive: -0.588% [cytotoxic]"},
      {"compound": "Cc1onc(-c2c(F)cccc2Cl)c1C(=O)Nc1nnc(C(F)(F)F)s1", "Potency": "inconclusive [cytotoxic, single point]"},
      {"compound": "COc1cc2ccccc2cc1C(=O)N(CCN(C)C)c1nc2c(F)cc(F)cc2s1", "Potency": "inconclusive [cytotoxic, single point]"},
      {"compound": "O=C(NCc1ccco1)C1CCN(C(=O)c2cc3sccc3n2Cc2ccc(F)cc2)CC1", "Potency": "inconclusive [cytotoxic, single point]"},
      {"compound": "CCCCCC(=O)N1C[C@H](n2cc(COC(=O)c3ccccc3)nn2)[C@@H](O)C[C@@H]1c1ccc(C)cc1", "Potency": "inconclusive [cytotoxic, single point]"},
      {"compound": "Cc1nn(-c2ccccc2)c(C)c1/C=N/NC(=O)c1cccs1", "activity, negative = toxicity": "inactive: -6.79%"},
      {"compound": "CCN(C(=O)C1CCCN(c2ncnc3c2nc2n3CCCCC2)C1)c1cccc(Cl)c1", "note": "(stereo not given)", "activity, negative = toxicity": "inactive: -10.2%"},
      {"compound": "CC(C)c1ccc(NC(=O)N(CCc2nc3ccccc3[nH]2)C2CCCC2)cc1", "Potency": "inconclusive [cytotoxic, single point]"},
      {"compound": "O=C(c1cccc2nccnc12)N1CCCC(Nc2ccc(F)c(F)c2)C1", "note": "(stereo not given)", "activity, negative = toxicity": "inactive: -2.98%"},
      {"compound": "COc1cc(/C=C(/C#N)C(=O)Nc2ccc(Cl)cc2)ccc1Oc1nc(Cl)ncc1F", "activity, negative = toxicity": "inactive: -1.35%"},
      {"compound": "CC(=O)c1ccc(OCc2c(-c3ccccc3)nnn2CC(=O)NS(=O)(=O)c2ccc(C)cc2)cc1", "Potency": "inconclusive [rising, single point]"},
      {"compound": "O=C(O)C1CCN(S(=O)(=O)c2ccc(Cl)s2)CC1", "activity, negative = toxicity": "inactive: 10.6%"},
      {"compound": "CN(C(=O)COC(=O)c1ccc([N+](=O)[O-])cc1)c1ccccc1", "activity, negative = toxicity": "inactive: 18%"},
      {"compound": "COc1cccc(NC(=O)CN(C)C(=O)CN2C(=O)NC3(CCCC3)C2=O)c1", "Potency": "inconclusive [cytotoxic, single point]"},
      {"compound": "CN(C)S(=O)(=O)c1ccc(C(=O)NCC(=O)N/N=C/c2ccco2)cc1", "activity, negative = toxicity": "inactive: 21.8%"},
      {"compound": "Cc1cc(C)nc(/N=C(\\N)Nc2ccc3c(c2)OCCO3)n1", "Potency": "inconclusive [cytotoxic, single point]"},
      {"compound": "COC(=O)c1ccc(CNC(=O)CNc2cc(C(F)(F)F)ccc2N2CCOCC2)cc1", "activity, negative = toxicity": "inactive: 7.72%"},
      {"compound": "COc1ccc(/C=N/NC(=O)c2nc(-c3ccccc3)n(-c3ccccc3)n2)c(O)c1", "Potency": "inconclusive [cytotoxic, full curve, poor fit]"},
      {"compound": "COC(=O)[C@@]1(Cc2ccc(F)cc2)[C@H]2c3cc(C(=O)N4CCCC4)n(CC4CC4)c3C[C@H]2CN1C(=O)c1ccccc1", "Potency": "inconclusive [cytotoxic, single point]"},
      {"compound": "O=C1N(c2ccccc2C(F)(F)F)O[C@@]1(c1ccccc1)C1CCCCC1", "Potency": "inconclusive [cytotoxic, partial curve]"},
      {"compound": "O=C(CCC(=O)N1CCOCC1)NCCc1ccccc1", "activity, negative = toxicity": "inactive: -1.42%"},
      {"compound": "Clc1ccc2[nH]c3c(NCCN4CCOCC4)ncnc3c2c1", "Potency": "inconclusive [cytotoxic, single point]"},
      {"compound": "Cc1ccc(C)c(OCC(=O)NC2CCCCCC2)c1", "activity, negative = toxicity": "inactive: -23.9%"},
      {"compound": "Cc1ccc(/C(O)=C/c2nc3ccccc3oc2=O)cc1", "Potency": "active: 23.1 µM"},
      {"compound": "O=C(Nc1ccc(Cc2ccncc2)cc1)c1ccc(S(=O)(=O)N2CCCC2)cc1", "Potency": "inconclusive [cytotoxic, partial curve]"},
      {"compound": "NC(=O)c1ccccc1OCCOc1ccc(Br)cc1", "Potency": "inconclusive [cytotoxic, single point]"},
      {"compound": "O=C(NC1CCCC1)C(c1ccncc1)N(Cc1ccccc1)C(=O)c1ccc(-c2ccccc2)[nH]1", "note": "(stereo not given)", "Potency": "inconclusive [cytotoxic, single point]"},
      {"compound": "CCC(C(=O)NC1CCCC1)N(C(=O)Cn1nnc(-c2ccc(C)o2)n1)C(C)(C)C", "note": "(stereo not given)", "activity, negative = toxicity": "inactive: -17.9%"},
      {"compound": "O=C1Nc2ccccc2C12OCCO2", "activity, negative = toxicity": "inactive: -0.199%"},
      {"compound": "Cc1ccccc1NC1=C(Cl)C(=O)OC1OC(=O)c1ccco1", "note": "(stereo not given)", "Potency": "active: 11.2 µM"},
      {"compound": "COC(=O)[C@@]1(Cc2ccc(F)cc2)[C@H]2c3cc(C(=O)N4CCCC4)n(Cc4ccc(C)c(F)c4F)c3C[C@H]2CN1C(=O)c1ccccc1", "Potency": "inconclusive [cytotoxic, partial curve]"},
      {"compound": "Cc1cccc(C)c1NC(=O)CNC(=O)c1ccc(COc2ccccc2)cc1", "Potency": "inconclusive [cytotoxic, single point]"},
      {"compound": "O=C(Cn1c(C(=O)N2CCc3ccccc3C2)cc2sccc21)c1ccccc1", "activity, negative = toxicity": "inactive: -21.3%"},
      {"compound": "c1cncc(-c2nc(NCCCN3CCOCC3)c3c4c(sc3n2)CCC4)c1", "Potency": "inconclusive [cytotoxic, single point]"},
      {"compound": "COc1ccc(N2C(=O)C3C(C2=O)C(C(=O)c2ccccc2)N2CCCC32)cc1", "note": "(stereo not given)", "Potency": "inconclusive [cytotoxic, single point]"},
      {"compound": "Cc1ccc(C(C)NC(=O)c2ccc3c(c2)OCCO3)cc1C", "note": "(stereo not given)", "Potency": "inconclusive [cytotoxic, single point]"},
      {"compound": "Cn1cccc1C(=O)Nc1nc(-c2ccccn2)cs1", "Potency": "inconclusive [cytotoxic, single point]"},
      {"compound": "Cc1nc(N2CCC(C)CC2)c2c(C)c(C(=O)Nc3ccc(C(F)(F)F)cc3)sc2n1", "Potency": "inconclusive [cytotoxic, single point]"}
    ]}
  ]
}
